Experimental data: the antibiotic and cytotoxicity screens of Wong et al. (2023)
This is one part of the list.

Each molecule was assayed on HepG2 (assay: cytotoxicity call (relative viability < 0.9)). Details: 10 µM.

Q: How did the cytotoxicity call turn out when `C[C@H](CO)N1C[C@H](C)[C@H](CN(C)C(=O)Nc2ccc(F)cc2)OCCCC[C@H](C)Oc2ccc(NC(=O)Nc3cccc4ccccc34)cc2C1=O` was run?
A: inactive

Q: With `CN1C(=O)c2cc(NS(=O)(=O)c3ccc(F)cc3)ccc2OC[C@@H]2O[C@@H](CC(=O)NCC(F)(F)F)CC[C@@H]21` as the molecule, how does the cytotoxicity call read?
A: inactive

Q: Which cytotoxicity call does the source give for `Cc1ccc(NC(=O)c2ccc(CN3CCN(C)CC3)cc2)cc1Nc1nccc(-c2cccnc2)n1` here?
A: inactive

Q: How did the cytotoxicity call turn out when `Cc1ccc(S(=O)(=O)Nc2ccc3c(c2)C(=O)N([C@H](C)CO)C[C@@H](C)[C@H](CN(C)C(=O)Nc2ccc(C(F)(F)F)cc2)OCCCC[C@H](C)O3)cc1` was run?
A: inactive

Q: Which cytotoxicity call does the source give for `COc1ccc(CN(C)C[C@H]2Oc3c(NC(=O)c4cc(C)nn4C)cccc3C(=O)N([C@H](C)CO)C[C@@H]2C)cc1` here?
A: inactive

Q: With `Cn1c(=O)c2c(ncn2C)n(C)c1=O` as the molecule, how does the cytotoxicity call read?
A: inactive

Q: With `Cc1noc(C)c1NC(=O)N(C)C[C@@H]1OCCCC[C@H](C)Oc2ccc(NC(=O)Cc3ccccc3)cc2C(=O)N([C@H](C)CO)C[C@@H]1C` as the molecule, how does the cytotoxicity call read?
A: inactive

Q: How did the cytotoxicity call turn out when `O=C(C[C@H]1CC[C@@H]2[C@H](COC[C@@H](O)CN2S(=O)(=O)c2ccccc2)O1)NCc1ccc(-c2ccccc2)cc1` was run?
A: inactive

Q: How did the cytotoxicity call turn out when `Cc1ccc(S(=O)(=O)Nc2ccc3c(c2)C(=O)N([C@@H](C)CO)C[C@H](C)[C@@H](CN(C)S(=O)(=O)c2ccc(F)cc2)O3)cc1` was run?
A: inactive

Q: How did the cytotoxicity call turn out when `N#CCC12CC3CC(CC(C3)C1)C2` was run?
A: inactive

Q: With `C[C@@H]1CCCCO[C@@H](CN(C)Cc2ccc(C(=O)O)cc2)[C@H](C)CN([C@@H](C)CO)C(=O)c2cc(NC(=O)c3ccccc3)ccc2O1` as the molecule, how does the cytotoxicity call read?
A: inactive
